This is an account of results in the supplement of paper PMC11417369.

± gives the standard deviation of the averaged measurements. The list shows a part of the results.

The test system of the experiment is PfAP2-LT AP2 domain (GST-tagged). As to the kind of experiment: gcPBM binding intensity (ln(normalized median fluorescence intensity)); higher = stronger DNA binding. The method, boiled down:
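Binding of GST-tagged P. falciparum DNA-binding domains, expressed in E. coli and used at about 25 μg on average, was carried out for 1 h in 1× PBS containing 1% milk, 0.2 mg/ml BSA, 0.5% salmon testes DNA and 0.03% Triton X-100. The target was an Agilent 4 × 180k array of primer-extended double-stranded 36-bp intergenic genomic probes plus negative controls, read with Alexa488 anti-GST antibody at 488 nm. Binding intensity is the highest Masliner-normalised natural-log median intensity across replicate spots of either probe orientation.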
As for “TGAAAAGATAAAAAAAGTACACACACACATATATAT [XGTACX_site6504]”, the “gcPBM binding intensity (ln)” value was 9.765 ± 0.021.

For the sequence “TTATATAAAGAATGTACACACAGAAATGCACAGACA [CACACA_site5288]”, the “gcPBM binding intensity (ln)” value is 9.2 ± 0.44.

Turning to “AATATGTACAGACATACACACATATTTATATTTATA [CACACA_site6694]”, the “gcPBM binding intensity (ln)” value was found to be 9.05 ± 0.39.

For the sequence “GCTTATATTAATAAGGTGCTTTTTATTTCGTGTGTA [GTGCAC_site9649]”, the “gcPBM binding intensity (ln)” value worked out at 9.05 ± 0.37.

Consider “TCATAGTATAAACACACACACACACCCATATATATA [CACACA_site8512]”, for which the “gcPBM binding intensity (ln)” value came to 10.1 ± 0.31.

“AGAATGGTTTATAAAGGTACGTAATTTTTAATTTTA [XGTACX_site383]”: the “gcPBM binding intensity (ln)” value is 8.54 ± 0.54.

Regarding “ATATGTCCATATAGTAAATGTTACATTTTAAAGCGC [XGTACX_negctrl_site168]”, the “gcPBM binding intensity (ln)” value is 8.8 ± 0.39.

As for “AAAATATTTATTTTTTGTACACATAAAAACGCACTT [XGTACX_site4132]”, the “gcPBM binding intensity (ln)” value is 8.71 ± 0.45.

Take “CATATTTTGTGAAAAAGTACATATATATATATATAT [XGTACX_site6295]”: the “gcPBM binding intensity (ln)” value was 9.63 ± 0.2.

Turning to ATTCTTAAAAAATAAGTGCAAAATAATTAAATAAAT, the “gcPBM binding intensity (ln)” value is 8.69 ± 0.47.

With “AAACGTATTCTATAAAGTACATTATTATAGTAGACC [XGTACX_site8068]”, the “gcPBM binding intensity (ln)” value came out at 8.78 ± 0.39.

In the case of “TATTGAATAAAATGCACACGCATGCGTTATTTATTA [CACACA_site3479]”, the “gcPBM binding intensity (ln)” value came to 9.02 ± 0.35.

As to “TAAAAAAATTATATTTGTACATATTAATATAGCCTT [XGTACX_site4833]”, the “gcPBM binding intensity (ln)” value was 8.56 ± 0.34.

Consider “GATTTTTTTTTTTTTTCACACACTAATAATATTATC [CACACA_site464]”, for which the “gcPBM binding intensity (ln)” value amounted to 9.1 ± 0.44.

“TGTTTATGTATCAATTGTACAAAAAAAAAAAAAAAA [XGTACX_site1590]”: the “gcPBM binding intensity (ln)” value was found to be 8.32 ± 0.49.

“TTCAAAAAAATGTATACACACATAAGTATAATATAA [CACACA_site3758]”: the “gcPBM binding intensity (ln)” value was 8.86 ± 0.53.

Regarding “ATAAATGAAAAAAAGCGTACATATAAAAAAATATAT [XGTACX_site5063]”, the “gcPBM binding intensity (ln)” value is 9.02 ± 0.44.

Regarding “ACTTACCCATTTATTACACACATAAAGGAAAATTTT [CACACA_site4873]”, the “gcPBM binding intensity (ln)” value came out at 8.95 ± 0.4.

For “TGTAAATAATATAATAGTACGCATATTTTTATTGAA [XGTACX_site284]”, the “gcPBM binding intensity (ln)” value worked out at 8.68 ± 0.52.

As for “CTTATGTGCATACCTACACACTTACAGATATATATA [CACACA_site5622]”, the “gcPBM binding intensity (ln)” value came to 8.87 ± 0.43.

For the sequence “TAGGAAGAATTACTGTGTACTAAAATATTAAAAAGT [XGTACX_site4909]”, the “gcPBM binding intensity (ln)” value is 8.72 ± 0.55.

As to “TTCAAATATTTTATTTGTACATAAAAAAGAAAGTTA [XGTACX_site8287]”, the “gcPBM binding intensity (ln)” value was 8.31 ± 0.57.

With “CATAAGAAAATAAAAACATGCACATAAGAAATATAC [TGCATGCA_site842]”, the “gcPBM binding intensity (ln)” value came out at 9.22 ± 0.52.

“AATCTTCATACCAACACATGCACAAAAGAAATAAAA [TGCATGCA_site563]”: the “gcPBM binding intensity (ln)” value came to 8.99 ± 0.45.

Regarding “ATATAAATATATGGAAGTACACAAAAAAATTAAAAA [XGTACX_site8624]”, the “gcPBM binding intensity (ln)” value was found to be 8.78 ± 0.68.

For “TATATTTATACATATTGTACATTTTATACTTTTACA [XGTACX_site3884]”, the “gcPBM binding intensity (ln)” value worked out at 8.88 ± 0.42.

Turning to “ATTTATAATCAGGGTTGTACACTTATAGAATTTTTA [XGTACX_site4175]”, the “gcPBM binding intensity (ln)” value came to 8.57 ± 0.45.

For “GTCGCATTTTATACAAGTACACATGAATTATACAAC [XGTACX_site2200]”, the “gcPBM binding intensity (ln)” value came out at 8.87 ± 0.36.

On to “TAAATAATATCTATCACACACGCATATATACATATA [CACACA_site2622]”, for which the “gcPBM binding intensity (ln)” value was 9.07 ± 0.38.

In the case of “ATTATTAAAAAGATGTAAATAAATGAATATATGCTT [CACACA_negctrl_site539]”, the “gcPBM binding intensity (ln)” value turned out to be 8.65 ± 0.49.

As for “ATATAGTATAATAAAAGTACATTTTGATTTTTTCTC [XGTACX_site1797]”, the “gcPBM binding intensity (ln)” value was 8.44 ± 0.48.

Take “TATTAAGAATTTACATGTACTTGTTAAATAAGAAAA [XGTACX_site4466]”: the “gcPBM binding intensity (ln)” value was found to be 8.37 ± 0.42.

As for “TTCTATATATTTTAATGTACATATATGATTATTCTT [XGTACX_site8294]”, the “gcPBM binding intensity (ln)” value turned out to be 8.82 ± 0.49.

Take “AATAAAATGAGATGTTGTACAGTTTTGATATATGCA [XGTACX_site3052]”: the “gcPBM binding intensity (ln)” value amounted to 8.78 ± 0.47.

Take “ATATATATATATAAAAGTACATGCTTATATATATAT [XGTACX_site3786]”: the “gcPBM binding intensity (ln)” value is 8.99 ± 0.35.

For “TTTAAAAATGCTACATGTACAAAATAAAATATAATA [XGTACX_site2905]”, the “gcPBM binding intensity (ln)” value is 8.79 ± 0.49.

Consider “AAGTTTATCACAGCCACGCACACATAATATATGTAT [CACACA_site3670]”, for which the “gcPBM binding intensity (ln)” value was 9.34 ± 0.46.

Take “CACCCACTAATAAACACACACATATATATATATATA [CACACA_site389]”: the “gcPBM binding intensity (ln)” value stood at 10.3 ± 0.18.

“TATATAAACATACATACACACATACAATAAGTAAAA [CACACA_site5118]”: the “gcPBM binding intensity (ln)” value was 9.31 ± 0.31.

In the case of “ATTTTTTTTATTCAATGTACTTTTTTTTATATATAT [XGTACX_site4978]”, the “gcPBM binding intensity (ln)” value was found to be 8.8 ± 0.45.

With “TACAAAATATATATGACACACATAAAAAAAAGTATA [CACACA_site1373]”, the “gcPBM binding intensity (ln)” value is 9.13 ± 0.52.

As to “AATAAAAAACTACAATATACAAAATTATTAAATCAA [GTGCAC_negctrl_site703]”, the “gcPBM binding intensity (ln)” value came out at 8.68 ± 0.48.

In the case of “CATATAAAAATATGCACACACAGGAATACAAACATA [CACACA_site684]”, the “gcPBM binding intensity (ln)” value is 9.75 ± 0.38.

For “AAACGTACATAATACACACACATGTATCCATATAAA [CACACA_site5173]”, the “gcPBM binding intensity (ln)” value came out at 9.42 ± 0.42.
